Measurements: paper PMC8113725, “Structure–activity relationship of ipglycermide binding to phosphoglycerate mutases” (The Journal of Biological Chemistry, 2021)
Bridge positions count the residues as written; N and C are the ends. Square brackets hold non-standard residues; d marks the D form. Peptide text beside a SMILES is read from it.

Assays:
[1] = target: B. malayi iPGM (Brugia malayi, UniProt Q4VWF8); test: biochemical; conditions: Bm iPGM Ave IC50 (M), 5 nM enzyme
[2] = target: C. elegans iPGM (Caenorhabditis elegans, UniProt G5EFZ1); test: PGM enzyme assay (enolase–pyruvate kinase coupled, Kinase-Glo Plus end point) and IC50 determination; format: biochemical; conditions: Ce iPGM Ave IC50 (M), 5 nM enzyme
[3] = target: O. volvulus iPGM (Onchocerca volvulus, UniProt I6LDA6); test: biochemical; conditions: Ov iPGM Ave IC50 (M), 5 nM enzyme
[4] = Supplementary Table 4b, Ce-2d analogs
[5] = Supplementary Table 4a, Ce-2 analogs, average of N=2-3 independent experiments

Sequence of UniProt I6LDA6 (I6LDA6 whole entry): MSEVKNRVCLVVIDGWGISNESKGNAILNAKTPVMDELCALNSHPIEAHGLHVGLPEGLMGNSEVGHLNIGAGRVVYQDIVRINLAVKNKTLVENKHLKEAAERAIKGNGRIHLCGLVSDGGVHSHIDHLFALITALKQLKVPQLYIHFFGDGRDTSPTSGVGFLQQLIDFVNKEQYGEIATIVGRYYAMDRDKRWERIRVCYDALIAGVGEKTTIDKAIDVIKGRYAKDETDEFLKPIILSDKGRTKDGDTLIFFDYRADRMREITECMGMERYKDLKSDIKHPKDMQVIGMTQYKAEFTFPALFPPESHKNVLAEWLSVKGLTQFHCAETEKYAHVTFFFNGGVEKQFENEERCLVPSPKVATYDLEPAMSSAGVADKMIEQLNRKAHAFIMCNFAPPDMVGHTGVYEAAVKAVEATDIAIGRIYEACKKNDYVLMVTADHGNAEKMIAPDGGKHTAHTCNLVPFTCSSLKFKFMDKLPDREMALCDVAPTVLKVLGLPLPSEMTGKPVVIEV
Sequence of UniProt Q4VWF8 (Q4VWF8 whole entry): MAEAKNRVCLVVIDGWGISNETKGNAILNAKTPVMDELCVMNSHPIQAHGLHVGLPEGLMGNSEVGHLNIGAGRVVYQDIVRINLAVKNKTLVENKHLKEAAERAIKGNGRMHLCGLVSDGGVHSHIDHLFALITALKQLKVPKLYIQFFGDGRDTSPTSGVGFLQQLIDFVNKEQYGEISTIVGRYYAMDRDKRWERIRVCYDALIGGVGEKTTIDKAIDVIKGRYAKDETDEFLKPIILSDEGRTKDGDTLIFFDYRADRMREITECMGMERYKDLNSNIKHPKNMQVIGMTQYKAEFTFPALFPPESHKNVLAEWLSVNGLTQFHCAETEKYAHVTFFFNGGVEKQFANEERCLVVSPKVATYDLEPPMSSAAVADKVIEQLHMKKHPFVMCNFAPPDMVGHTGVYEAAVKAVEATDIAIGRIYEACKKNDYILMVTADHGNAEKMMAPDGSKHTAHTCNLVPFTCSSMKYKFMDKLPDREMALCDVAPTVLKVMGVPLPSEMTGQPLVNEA

COc1ccc(C[C@@H]2NC(=O)[C@H](CC(=O)O)NC(=O)CNC(=O)[C@@H]3CCCN3C(=O)[C@H](Cc3ccc(O)cc3)NC(=O)[C@H](CC(=O)O)NC(=O)[C@@H](Cc3ccc(O)cc3)NC(=O)CSC[C@@H](C(=O)N[C@@H](Cc3ccc(O)cc3)C(=O)N[C@@H](CC(C)C)C(=O)N[C@@H](Cc3ccc(O)cc3)C(N)=O)NC2=O)cc1 [Ce-2d Y7(4OMe)F]
IC50 [1, 4]: 5.15e-08 M | IC50 [2, 4]: 5.69e-09 M | IC50 [3, 4]: 1.61e-07 M

CC[C@H](C)[C@@H]1NC(=O)[C@H](Cc2ccc(O)cc2)NC(=O)[C@H](CC(=O)O)NC(=O)[C@@H](Cc2ccc(O)cc2)NC(=O)CSC[C@@H](C(=O)N[C@@H](Cc2ccc(O)cc2)C(=O)N[C@@H](CC(C)C)C(=O)N[C@@H](Cc2ccc(O)cc2)C(N)=O)NC(=O)[C@H](Cc2ccc(O)cc2)NC(=O)[C@H](CC(=O)O)NC(=O)CNC1=O [Ce-2d P4I]
IC50 [1, 4]: 1.19e-07 M | IC50 [2, 4]: 6.05e-09 M | IC50 [3, 4]: 5.21e-07 M

CC(C)C[C@H](NC(=O)[C@H](Cc1ccc(O)cc1)NC(=O)[C@@H]1CSCC(=O)N[C@H](Cc2ccc(O)cc2)C(=O)N[C@@H](CC(=O)O)C(=O)N[C@@H](Cc2ccc(O)cc2)C(=O)N2CCC[C@H]2C(=O)NCC(=O)N[C@@H](CC(N)=O)C(=O)N[C@@H](Cc2ccc(O)cc2)C(=O)N1)C(=O)N[C@@H](Cc1ccc(O)cc1)C(N)=O [Ce-2d D6N]
IC50 [1, 4]: 3.72e-06 M | IC50 [2, 4]: 3.81e-07 M | IC50 [3, 4]: 9.41e-06 M

CC(C)C[C@H](NC(=O)[C@H](Cc1ccc(O)cc1)NC(=O)[C@@H]1CSCC(=O)N[C@H](Cc2ccc(O)cc2)C(=O)N[C@@H](CC(=O)O)C(=O)N[C@@H](Cc2ccccc2)C(=O)N2CCC[C@H]2C(=O)NCC(=O)N[C@@H](CC(=O)O)C(=O)N[C@@H](Cc2ccc(O)cc2)C(=O)N1)C(=O)N[C@@H](Cc1ccc(O)cc1)C(=O)NCC(=O)N[C@H](C(=O)N[C@@H](CS)C(N)=O)[C@@H](C)O [Ce-2 Y3F] ({CH2CO}-[dY]DFPGDYCYLYGTC-NH2; thioether N-8)
IC50 [1, 5]: 3.69e-09 M | IC50 [2, 5]: 1.6e-09 M | IC50 [3, 5]: 3.22e-09 M

CC(C)C[C@H](NC(=O)[C@H](Cc1ccc(O)cc1)NC(=O)[C@@H]1CSCC(=O)N[C@H](Cc2ccc(O)cc2)C(=O)N[C@@H](CC(=O)O)C(=O)N[C@@H](Cc2ccccc2)C(=O)N2CCC[C@H]2C(=O)NCC(=O)N[C@@H](CC(=O)O)C(=O)N[C@@H](Cc2ccc(O)cc2)C(=O)N1)C(=O)N[C@@H](Cc1ccc(O)cc1)C(N)=O [Ce-2d Y3F]
IC50 [1, 4]: 3.8e-06 M | IC50 [2, 4]: 4.42e-07 M | IC50 [3, 4]: 1.22e-05 M

CC(C)C[C@H](NC(=O)[C@H](Cc1ccc(O)cc1)NC(=O)[C@@H]1CSCC(=O)N[C@H](Cc2ccc(O)cc2)C(=O)N[C@@H](CC(=O)O)C(=O)N[C@@H](Cc2ccc(O)cc2)C(=O)N2CCC[C@H]2C(=O)NCC(=O)N[C@@H](CC(=O)O)C(=O)N[C@@H](Cc2ccc(O)cc2)C(=O)N1)C(=O)N[C@@H](Cc1ccc(O)cc1)C(=O)NCC(=O)N[C@H](C(=O)NO)[C@@H](C)O [Ce-2 C14NHOH]
IC50 [1, 5]: 6.7e-09 M | IC50 [2, 5]: 2.55e-09 M | IC50 [3, 5]: 3.33e-09 M

CC(C)C[C@H](NC(=O)[C@H](Cc1ccc(O)cc1)NC(=O)[C@@H]1CSCC(=O)N[C@H](Cc2ccc(O)cc2)C(=O)N[C@@H](CC(=O)O)C(=O)N[C@@H](Cc2ccc(O)cc2)C(=O)N2CCC[C@H]2C(=O)NCC(=O)N[C@@H](CC(=O)O)C(=O)N[C@@H](Cc2ccc(O)cc2)C(=O)N1)C(=O)N[C@@H](Cc1ccc(O)cc1)C(=O)NCC(=O)N[C@H](C(=O)N[C@@H](CS)C(N)=O)[C@@H](C)O [Ce-2]
IC50 [1, 5]: 7.72e-10 M | IC50 [2, 5]: 8.89e-10 M | IC50 [3, 5]: 1.24e-09 M

CC(C)C[C@H](NC(=O)[C@H](Cc1ccc(O)cc1)NC(=O)[C@@H]1CSCC(=O)N[C@H](Cc2ccc(O)cc2)C(=O)N[C@@H](CC(=O)O)C(=O)N[C@@H](Cc2ccc(O)cc2)C(=O)N2CCC[C@H]2C(=O)NCC(=O)N[C@@H](CC(=O)O)C(=O)N[C@@H](Cc2ccc(O)cc2)C(=O)N1)C(=O)N[C@@H](Cc1ccc(O)cc1)C(=O)O [Ce-2d Y11COOH]
IC50 [1, 4]: 5.12e-07 M | IC50 [2, 4]: 4.64e-08 M | IC50 [3, 4]: 6.98e-07 M

CC(C)C[C@H](NC(=O)[C@H](Cc1ccc(O)cc1)NC(=O)[C@@H]1CSCC(=O)N[C@H](Cc2ccc(O)cc2)C(=O)N[C@@H](CCC(=O)O)C(=O)N[C@@H](Cc2ccc(O)cc2)C(=O)N2CCC[C@H]2C(=O)NCC(=O)N[C@@H](CC(=O)O)C(=O)N[C@@H](Cc2ccc(O)cc2)C(=O)N1)C(=O)N[C@@H](Cc1ccc(O)cc1)C(N)=O [Ce-2d D2E]
IC50 [1, 4]: 7.03e-08 M | IC50 [2, 4]: 9.62e-09 M | IC50 [3, 4]: 2.79e-07 M

CC(C)C[C@H](NC(=O)[C@H](Cc1ccc(O)cc1)NC(=O)[C@@H]1CSCC(=O)N[C@H](Cc2ccc(O)cc2)C(=O)N[C@@H](CCC(N)=O)C(=O)N[C@@H](Cc2ccc(O)cc2)C(=O)N2CCC[C@H]2C(=O)NCC(=O)N[C@@H](CC(=O)O)C(=O)N[C@@H](Cc2ccc(O)cc2)C(=O)N1)C(=O)N[C@@H](Cc1ccc(O)cc1)C(N)=O [Ce-2d D2Q]
IC50 [1, 4]: 2.77e-07 M | IC50 [2, 4]: 2.27e-08 M | IC50 [3, 4]: 8.14e-07 M

CC(C)C[C@H](NC(=O)[C@H](Cc1ccc(O)cc1)NC(=O)[C@@H]1CSCC(=O)N[C@H](Cc2ccc(O)cc2)C(=O)N[C@@H](CC(=O)O)C(=O)N[C@@H](Cc2ccc(O)cc2)C(=O)N2CCC[C@H]2C(=O)NCC(=O)N[C@@H](CC(=O)O)C(=O)N[C@@H](CO)C(=O)N1)C(=O)N[C@@H](Cc1ccc(O)cc1)C(N)=O [Ce-2d Y7S]
IC50 [1, 4]: 9.5e-08 M | IC50 [2, 4]: 1.62e-08 M | IC50 [3, 4]: 4.21e-07 M

CC(C)C[C@H](NC(=O)[C@H](Cc1ccc(O)cc1)NC(=O)[C@@H]1CSCC(=O)N[C@H](Cc2ccc(O)cc2)C(=O)N[C@@H](CC(=O)O)C(=O)N[C@@H](Cc2ccc(F)cc2)C(=O)N2CCC[C@H]2C(=O)NCC(=O)N[C@@H](CC(=O)O)C(=O)N[C@@H](Cc2ccccc2)C(=O)N1)C(=O)N[C@@H](Cc1ccc(O)cc1)C(=O)NCC(=O)N[C@H](C(=O)N[C@@H](CS)C(N)=O)[C@@H](C)O
IC50 [1, 5]: 2.12e-09 M | IC50 [2, 5]: 9.03e-10 M | IC50 [3, 5]: 1.87e-09 M
